Experimental data reported in PubChem BioAssay AID485341 (National Center for Advancing Translational Sciences (NCATS), 2010).
In all, about 330,000 compounds went through this assay and about 1,700 (0.52%) were called active. The shares of active, inactive and inconclusive entries below differ from those in the screen. The call rests on the fitted dose curve; in most records, active means well fitted inhibition curve with a large enough effect; inconclusive means small, poorly fitted or top-dose-only effect; inactive means no such curve, though single readings can be large or run the other way. A potency beside an inconclusive call is a rough fit, not a confirmed value.

These molecules were tested against Beta-lactamase (Escherichia coli (strain K12)) (UniProt P00811) (assay: qHTS Inhibitors of AmpC Beta-Lactamase (assay without detergent)). Conditions: AmpC nitrocefin hydrolysis, absorbance 480 nm, 0.0001% Triton; series mostly up to 57.1 µM.
Procedure, shortened: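 20 mM phosphate pH 7.0 + 0.01% (detergent screen) or 0.0001% Triton X-100; 5.3 nM AmpC reagent; cpd preinc 15 min RT; nitrocefin (800 uM stock) to start; A480 q20 s × 4 min; Activity was normalised to no-enzyme and no-compound control wells.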
Further: nearly all actives have a fitted effect of over 20% in size.
Potency means the concentration at half of the fitted maximal effect; tags describe the fitted curve by direction and shape.

UniProt P00811, sequence (P00811 whole entry, looked up): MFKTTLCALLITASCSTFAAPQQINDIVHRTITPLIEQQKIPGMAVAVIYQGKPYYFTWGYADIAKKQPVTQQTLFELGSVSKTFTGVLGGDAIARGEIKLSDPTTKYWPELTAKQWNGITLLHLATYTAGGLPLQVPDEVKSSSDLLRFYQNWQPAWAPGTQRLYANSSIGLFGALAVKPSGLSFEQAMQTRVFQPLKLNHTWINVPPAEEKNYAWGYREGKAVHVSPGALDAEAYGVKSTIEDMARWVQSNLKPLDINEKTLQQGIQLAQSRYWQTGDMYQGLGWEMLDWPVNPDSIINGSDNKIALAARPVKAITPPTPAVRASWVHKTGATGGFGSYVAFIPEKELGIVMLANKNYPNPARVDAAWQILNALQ

Compound	Potency
O=S(=O)(c1ccccc1Cl)N1CCCC1c1nc(-c2ccc(Cl)cc2)no1 (stereo not given)	active: 0.316 µM
COc1ccc(NS(=O)(=O)c2ccc(O)c(NC(=O)c3ccc(S(=O)(=O)N4CCCCCC4)cc3)c2)cc1	inconclusive: 28.2 µM [inhibitor, partial curve]
COc1cccc(C(=O)N/N=C2\SCC(=O)N2Cc2ccc3c(c2)OCO3)c1	inconclusive: 3.98 µM [inhibitor, single point]
O=S(=O)(Nc1ccc(-n2cccc2)cc1)c1ccccc1	inconclusive: 1 µM [inhibitor, partial curve, poor fit]
CC1CCCCN1CCCNC(=O)C1CCN(c2nc3ccccc3o2)CC1 (stereo not given)	inconclusive: 0.708 µM [inhibitor, full curve, poor fit]
COc1cc(CNc2nc(C)c([N+](=O)[O-])c(C)c2C#N)cc(OC)c1	inconclusive: 7.08 µM [inhibitor, partial curve, poor fit]
Cc1ccccc1C(=O)NCC(=O)OC1CCCCC1=O (stereo not given)	inconclusive: 39.8 µM [inhibitor, single point]
COc1ccc(N2CCN(C(=O)CCCn3c(=O)c4cccn4c4cccnc43)CC2)cc1	inactive
Cc1cc(C)cc(NC(=O)COC(=O)c2n[nH]c3ccccc23)c1	active: 15.8 µM
NS(=O)(=O)c1ccc(NC(=S)Nc2ccc(Br)c(Cl)c2)cc1	inconclusive: 39.8 µM [inhibitor, single point]
c1ccc(CNc2nc(NCc3ccccc3)c3ccccc3n2)cc1	inconclusive: 31.6 µM [inhibitor, partial curve]
COc1ccc(-c2nc3ccc(C(=O)NCC(OC)OC)cc3nc2-c2ccc(OC)cc2)cc1	inactive
Cc1cccc(NC2=C(Cl)C(=O)OC2OC(C)C)c1 (stereo not given)	inactive
CC(O)c1nc2ccccc2n1C1CCCCC1 (stereo not given)	inconclusive: 3.98 µM [inhibitor, single point]
Cc1ccc(NC(c2ccccc2)c2nc3ccccc3[nH]c2=O)cc1 (stereo not given)	inconclusive: 3.55 µM [inhibitor, full curve, poor fit]
CC1CN(CCS(=O)(=O)c2cc(Cl)ccc2Cl)CC(C)O1 (stereo not given)	inactive
CCOC(=O)c1c(C)[nH]c(C)c1C(=O)CSc1nc2ccccc2c(=O)n1-c1ccc(Cl)cc1	inconclusive: 7.08 µM [inhibitor, single point]
Cc1cccc(/C=N/NC(=O)CN2CCCCCCC2)c1	inactive
CCOc1ccc(C(=O)C(C)OC(=O)Cn2cnc3c2c(=O)n(C)c(=O)n3C)cc1 (stereo not given)	inconclusive: 39.8 µM [inhibitor, single point]
CNC(=O)/C(=C\c1ccco1)NC(=O)c1ccco1	inactive
COc1c(-c2ccc(O)cc2)oc2cc(O)cc(O)c2c1=O	inactive
CCN(CCn1cccn1)Cc1nc(Cc2cccc(F)c2)no1	inactive
CC(C)C[C@H](N)c1nnc(S(=O)(=O)Cc2ccc(F)cc2)o1	active: 2 µM

Compound	Potency
O=C(NCc1ccc(F)cc1)C(=O)NCC1CCCN1S(=O)(=O)c1ccccc1 (stereo not given)	inconclusive: 35.5 µM [inhibitor, single point]
O=C(/C(=C(\[O-])c1ccccc1)[n+]1ccc2ccccc2c1)c1ccccc1	inconclusive: 17.8 µM [inhibitor, partial curve]
O=c1cc(O)c2c(=O)n(-c3ccccc3)c3c(c2o1)CCCCCC3	inconclusive: 39.8 µM [inhibitor, single point]
Cc1cc(NC(=O)CS(=O)(=O)c2ccc(F)cc2)no1	inconclusive: 39.8 µM [inhibitor, single point]
Cc1cc(NC(=O)Cc2ccccc2)nc2c1c(=O)oc1ccccc12	active: 6.31 µM
COc1ccc(OC)c(NC(=O)c2cc(-c3cc(C)c(C)cc3O)n[nH]2)c1	inconclusive: 39.8 µM [inhibitor, single point]
O=[N+]([O-])c1cccc(N/N=C/c2cccc(O)c2O)c1	active: 15.8 µM
CC1CCN(c2ccc(NC(=O)c3ccc([N+](=O)[O-])o3)cc2)CC1	inconclusive: 31.6 µM [inhibitor, single point]
CCn1c(=O)c2cc(C(=O)N3CCN(C)CC3)sc2c2ccccc21	active: 0.631 µM
COc1ccc(S(=O)(=O)NNC(=O)c2ccc(-n3c(C)ccc3C)cc2)cc1	inactive
Nc1nc(N)c(C=Nc2ccc(Br)cc2)c(Nc2ccc(Br)cc2)n1	inconclusive: 15.8 µM [inhibitor, partial curve]
CC(Sc1ccccc1)C(=O)Nc1ccccc1C(=O)N1CCOCC1 (stereo not given)	active: 0.282 µM
O=C(N/N=C/c1cc(Br)ccc1O)Nc1ccccc1	inconclusive: 10 µM [inhibitor, partial curve]
COc1ccc2[nH]c(C)c(CCN(Cc3cccs3)C(=S)Nc3ccccc3OC)c2c1	active: 0.501 µM
CC(CNS(=O)(=O)c1cc(Cl)ccc1Cl)CN(C)C (stereo not given)	inconclusive: 3.98 µM [inhibitor, single point]
COc1ccc(C(=O)COC(=O)Cn2c(C)csc2=O)c(OC)c1	inconclusive: 35.5 µM [inhibitor, single point]
CC1CCN(S(=O)(=O)c2ccc3c(c2)CCC(=O)N3CC(=O)Nc2cccc(C#N)c2)CC1	inconclusive: 8.91 µM [inhibitor, partial curve]
CCOC(=O)C1=C(CSCc2ccccc2)NC(=O)NC1c1cc(C)ccc1C (stereo not given)	inconclusive: 1.58 µM [inhibitor, full curve, poor fit]
COc1ccc(CCNC(=O)CC2SC(=NCc3ccccc3)NC2=O)cc1 (stereo not given)	inconclusive: 35.5 µM [inhibitor, single point]
NS(=O)(=O)c1cccc(NC(=O)c2cc(-c3cccs3)nc3ccccc23)c1	active: 17.8 µM
COC(=O)c1ccc(Oc2coc3cc(OCc4ccc([N+](=O)[O-])cc4)ccc3c2=O)cc1	inconclusive: 31.6 µM [inhibitor, partial curve]
COc1ccc(S(=O)(=O)N(C)CC(=O)Nc2c(F)cccc2F)cc1	active: 0.141 µM
